# Measurements taken from PMC12136788.
# The other results are listed elsewhere or left out.
# B1: chr10:89774496:89774597:+|3pUTR|ENSG00000138182|msi1|total|mutant (ssRNA)
# RNA: GGGAGUUCUACAGUCCGACGAUCAAGAUCUCAAGUCUUUAAUCCGAAUGUCUCACUUAUUUUGUAAACAUUUUGUGGGUACACCGUACAUGUAUAUAUUUACGGGGUAUGUGAGAUGUUUUGACACAGGCAUGCAAUGUGAAACAACAGAGGAUUGAGCAUCA
# B2: chr5:138349049:138349150:+|3pUTR|ENSG00000120709|msi1|total|mutant (ssRNA)
# RNA: GGGAGUUCUACAGUCCGACGAUCGAGAAGGUCUACAGUUAUCAUUAUUUUAAUUCCAUUACUUUCAGUCUGGAAAACUAAGCCCGUCAGAACUGUCAUCUUGCUUCCCAAUCUAAGAACCUGUGGCCCUGGAACACUUUUCAACAACAGAGGAUUGAGCAUCA
# B3: chr11:124038068:124039001:-|CDS|ENSG00000182634|control|control|control (ssRNA)
# RNA: GGGAGUUCUACAGUCCGACGAUCCAACGAGAUGGUCAUCUUUGUGAAUAUUGGGCUAGUGGCCUCGGGCUGCUUUGUCCUGAUAGUGCUGUCCUAUGUGUCCAUCGUCUGUUCCAUCCUGCGGAUCCGCACCUCAGAGGGGAGCAACAGAGGAUUGAGCAUCA
# B4: chr20:35286537:35287972:-|CDS|ENSG00000125998|control|control|control (ssRNA)
# RNA: GGGAGUUCUACAGUCCGACGAUCAAUCUCGGCAAGCUAGGGGCAUACCCAUGGUCCCAGUCCUCCCCUGCCCUCAACCAUAAUAGUACCAGCCCCUUAACCUUGGCAGUGGGGUCACCUCUGCUUCCUCGCUCCCGGCCCCUCCAACAGAGGAUUGAGCAUCA
# B5: chr5:173316221:173316322:-|3pUTR|ENSG00000113739|msi1|total|mutant (ssRNA)
# RNA: GGGAGUUCUACAGUCCGACGAUCAGUACUUUCAGUUUGGCGAGCCGUGAGGUCUCUGUCGAAACUACUCAACUCUGCCGUCCCCGCACAAAAGCAGCCACCGACAACACACAAACGAGAGGGCUUGGCUCCCUUCCAGGAAGACAACAGAGGAUUGAGCAUCA
# B6: ENSG00000198589:be:win_2701|CDS|ENSG00000198589|bound_else_gene|NA|bound_elsewhere_windowed (ssRNA)
# RNA: GGGAGUUCUACAGUCCGACGAUCGCAGUCAAAUAUGAGUGGGGUGGCUGGCGUGUAUGGGUAGACACUUUAUCAAUCACUCAUUCAAAGGUCACUUUUGAAAUACACAAAGAAAACCUUGCCAAUAUAUUUAGGGAACAGCAACAACAGAGGAUUGAGCAUCA
# B7: chr6:17764380:17764481:-|CDS|ENSG00000137177|msi1|FALSE|unique (ssRNA)
# RNA: GGGAGUUCUACAGUCCGACGAUCCCAGAGCAUCCCUGAGAAAAACUCCAAAUCACUGUGCAGGACUGGCUCAUGUUCAGAACUAGAUGCCUGCCCCAGCAAAAUUAGCCAGCCAGCCAGGGGAUUCUGCCCCAGGGAGGUGACCAACAGAGGAUUGAGCAUCA
# B8: chr18:49591392:49591493:+|3pUTR|ENSG00000101670|msi1|FALSE|unique (ssRNA)
# RNA: GGGAGUUCUACAGUCCGACGAUCCCUUCUUAGUUAUUAUGUGCCACCUCCCCUAUGAGUGACGUGUUUGAUCACUAGCAGAAUAGCAAGCAGAGUAUCAUUCAUGCUGGGGCCAGAAUGAUGGCCGGUUGCCAGAUAUAACUGCAACAGAGGAUUGAGCAUCA
# B9: ENSG00000198589:be:win_5551|CDS|ENSG00000198589|bound_else_gene|NA|bound_elsewhere_windowed (ssRNA)
# RNA: GGGAGUUCUACAGUCCGACGAUCGUGGAAUUGGUUAUGCUACUGUGUUCUCAGGAGUGGCAAAAUUCUAUUCAGAAGAAUGCAGGCCUUGCUUUUAUCGAACUUGUCAAUGAAGGAAGGUUGCUUAGCCAGACAAUGAAGGAUCAACAGAGGAUUGAGCAUCA
# B10: chr6:7881277:7881391:+|3pUTR|ENSG00000153162|unk|FALSE|unique (ssRNA)
# RNA: GGGAGUUCUACAGUCCGACGAUCGCUGUUUAUGAACGGAAAUCAUGAUUUCCCUUGUAGAAAGUGAGGCUCAGAUUAAAUUUUAGAAUAUUUUCUAAAUGUCUUUUUCACAAUCAUGUACUGGGAAGGCAAUUUCAUACUAAACAACAGAGGAUUGAGCAUCA
# B11: chrX:65740646:65740790:+|3pUTR|ENSG00000147065|msi1|total|mutant (ssRNA)
# RNA: GGGAGUUCUACAGUCCGACGAUCGGCCAUUCUAUUGUGGCAAGGCUGAGCCGAAGAUCCUACCCCAAUUCCUUGCCGGAGUACCGGCCGGUCUAAAGUGAGCUCUAUGGGCAGAUCUACCCCUUACUUAUUAUUCCAGAUCUGCAACAGAGGAUUGAGCAUCA
# B12: chr2:73228009:73228453:-|three_prime_utr|ENSG00000135617|control|control|control (ssRNA)
# RNA: GGGAGUUCUACAGUCCGACGAUCUAAGUGACUCUGAGCUGGGAAGGGGAAACCCAGGAAUUUUGCUACUUGGAAUUUGGAGAUAGCAUCUGGGGACAAGUGGAGCCAGGUAGAGGAAAAGGGUUUGGGCGUUGCUAGGCUGAACAACAGAGGAUUGAGCAUCA
# B13: chr11:44260439:44264853:-|three_prime_utr|ENSG00000052850|control|control|control (ssRNA)
# RNA: GGGAGUUCUACAGUCCGACGAUCGACACCAUGGGCCACGCCCAUGUUUUCCAGGCCCCCAGCCUCCCACUCGACUUUCCUCUUAGGAACCUGGCCUGGGCCAGGGGCCUGACCCUCAGCACUUUCAGCCGCCCCAAGUCUGAGCAACAGAGGAUUGAGCAUCA
# B14: chr16:46798953:46799054:-|3pUTR|ENSG00000155330|unk|FALSE|unique (ssRNA)
# RNA: GGGAGUUCUACAGUCCGACGAUCUCUAUAUUUUUUUCUUUGCCUUAUUGCACUGGUUGGGACUUUUUGCCUUGAUCCAGUUGUAGGGGGGAAACAUUCAGUCAUUAAGCAUUAAAUAACUUUGUUGUUGUUGUGGGCUUGAAACAACAGAGGAUUGAGCAUCA
# Target: T1, UNK ZnF1-6 (called full-length) (human, UniProt Q9C0B0 30-357)
# T1 sequence: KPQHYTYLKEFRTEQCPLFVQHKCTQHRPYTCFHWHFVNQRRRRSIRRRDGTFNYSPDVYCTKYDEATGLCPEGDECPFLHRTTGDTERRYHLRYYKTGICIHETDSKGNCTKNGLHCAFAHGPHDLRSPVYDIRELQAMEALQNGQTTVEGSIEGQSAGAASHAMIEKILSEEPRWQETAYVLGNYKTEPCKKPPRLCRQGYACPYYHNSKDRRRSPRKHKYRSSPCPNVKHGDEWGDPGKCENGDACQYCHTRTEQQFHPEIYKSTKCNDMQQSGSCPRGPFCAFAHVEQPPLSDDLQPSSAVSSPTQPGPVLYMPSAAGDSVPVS
# Assay: nsRBNS (natural sequence RNA bind-n-seq); RBNS binding buffer (assumed for nsRBNS): 25 mM Tris pH 7.5, 150 mM KCl, 3 mM MgCl2, 0.01% Triton X-100, 500 ug/ml BSA, 20 U/ml SUPERase-In, 4 C; UNK is unkempt and MSI1 is Musashi-1; names of the RNAs are library labels; protein concentration not given here; high values mean tight binding
row,Binder,binding signal [enrichment R]
1,B1,0.313
2,B2,0.564
3,B3,0.705
4,B4,1.22
5,B5,0.934
6,B6,1.22
7,B7,0.853
8,B8,1.48
9,B9,0.469
10,B10,0.528
11,B11,0.632
12,B12,1.09
13,B13,0.652
14,B14,0.79
